The record followed here is PubChem BioAssay AID1508624 (National Center for Advancing Translational Sciences (NCATS), 2021).

The whole screen tested about 48,000 compounds, of which about 120 (0.25%) were called active. Inconclusive results (about 4%) are left out. The call rests on the fitted dose curve; in most records, active means well fitted activation curve with a large enough effect; inconclusive means small, poorly fitted or top-dose-only effect, or another doubt; inactive means no such curve, though single readings can be large or run the other way. This is one part of the list.

The experiment in a line: Primary qHTS for Identification of Small Molecule Activators of Huntingtin-Antisense Promoter Activity. Further: nearly all actives have a fitted effect of over 55% in size. Particulars: HEK293 HTT-AS promoter firefly luciferase reporter (activity 0% = vehicle and -100% = no light), 24 h; series mostly up to 57.5 µM; activity change, positive = activation: at the top concentration. The gist of the method:
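HEK293 Fluc reporter, 2,500 cells/well, 24 h pre-culture; cpds up to 57.5 uM final, 24 h 37 degrees C; Dual-Glo, 10 min RT; normalized vehicle = 0%, zero RLU = -100%.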
(qHTS replaces the single test concentration by a dilution series.)
Regarding `Cc1c(C(=O)Nc2ccc(Br)cc2F)oc2ccc(S(=O)(=O)N3CCCCC3)cc12`, the “activity change, positive = activation” value was inactive: -3.62%.

With `CC1(C(=O)Nc2cccc(C(F)(F)F)c2)Cc2ccccc2C(=O)O1` (configuration not stated), the “activity change, positive = activation” value is inactive: -12.6%.

As to `CC1=C(C(=O)Nc2c(C)cc(C)cc2C)C2(CCN(C(C)C)CC2)OC1=O`, the “activity change, positive = activation” value is inactive: -8.24%.

As to `CC1=C(C(=O)Nc2cccc(C)c2C)C2(CCCCC2)OC1=O`, the “activity change, positive = activation” value is inactive: -4.33%.

With `COc1ccc(CCNC(=O)c2cnc3sc(N4CCCCCC4)nn3c2=O)cc1OC`, the “activity change, positive = activation” value is inactive: -0.865%.

Regarding `CCOCCCNC(=O)C(c1ccc(OC)cc1)N(Cc1cccs1)C(=O)c1ccccc1O` (configuration not stated), the “activity change, positive = activation” value was inactive: -1.26%.

`CC(C)CCN1C(=O)N(c2ccccc2)C(=O)C1CC(=O)Nc1ccc(Cl)cc1` (configuration not stated): the “activity change, positive = activation” value is inactive: -17.2%.

Take `COc1ccccc1N1CCN(CCCNC(=O)c2cnn(-c3ccccc3Cl)c2C2CCN(C(=O)OC(C)(C)C)CC2)CC1`: the “activity change, positive = activation” value is inactive: -21.6%.

As to `CC(C)NC(=O)CSc1nc2ccccc2nc1N1CCCCC1`, the “activity change, positive = activation” value is inactive: -23.5%.

With `Cc1ccc(Sc2ccc(N3CCCC(C(=O)Nc4ccc(Cl)cc4)C3)nn2)cc1` (configuration not stated), the “activity change, positive = activation” value is inactive: -28.6%.

With `CCn1c(SC)nc2c([nH]c3ccccc32)c1=O`, the “activity change, positive = activation” value was inactive: -2.93%.

Turning to `COc1ccc(CNC(=O)c2ccc3c(c2)N=C(C)c2c(C)ccc(C)c2S3)cc1`, the “activity change, positive = activation” value is inactive: -45%.

With `Cc1cc(C)cc(NC(=O)CC(C)n2nc(C)cc2C)c1` (configuration not stated), the “activity change, positive = activation” value is inactive: -19.1%.

`CCN(CC)c1ccc(NC(=O)CN2CCN(S(=O)(=O)c3ccc(C(C)C)cc3)CC2)cc1`: the “activity change, positive = activation” value was inactive: -35.5%.

Regarding `O=C(Cn1ccc2cc(S(=O)(=O)N3CCCC3)ccc21)NCc1ccc(Cl)cc1`, the “activity change, positive = activation” value is inactive: -39.6%.

As to `COc1cc(NC(=O)Cn2c(=O)n(Cc3ccccc3)c(=O)c3oc4ccccc4c32)cc(OC)c1`, the “activity change, positive = activation” value was inactive: -13.3%.

Take `O=C(Nc1ccc(F)cc1)C1CCN(c2nc3ccccc3nc2C(F)(F)F)CC1`: the “activity change, positive = activation” value was inactive: 12.5%.

On to `COc1ccc(-c2noc(CC(=O)N(C)c3ccccc3F)n2)cc1`, for which the “activity change, positive = activation” value was inactive: -4.88%.

On to `Cc1nc(N2CCOCC2)c2c(C(=O)N3CCN(c4cc(Cl)ccc4C)CC3)c(C)oc2n1`, for which the “activity change, positive = activation” value is inactive: 6%.

On to `CCOc1c(CC2C(=O)Nc3ccc(Br)cc32)cccc1OC` (configuration not stated), for which the “activity change, positive = activation” value was inactive: -42.3%.

Consider `O=C(CN1C(=O)C2CCCCN2c2ccc(C(=O)N3CCCC3)cc21)NCc1ccc(F)cc1` (configuration not stated), for which the “activity change, positive = activation” value is inactive: -12%.

For the compound `CCOc1ccccc1CNc1ncnc2onc(-c3ccc(F)cc3)c12`, the “activity change, positive = activation” value is inactive: -25.6%.

Consider `CCCNC(=O)CN1C(=O)COc2ccc(S(=O)(=O)N3CCCC3)cc21`, for which the “activity change, positive = activation” value is inactive: -6.45%.

As for `CCN1CCC(N(Cc2ccc(F)cc2)C(=O)Nc2cc(C)ccc2C)CC1`, the “activity change, positive = activation” value was inactive: -12.7%.

On to `COc1ccc(-n2cc(C(=O)NCCc3ccc(C)cc3)c3ccccc3c2=O)cc1`, for which the “activity change, positive = activation” value is inactive: -24.3%.

On to `CC1CCCCN1C(=O)CSc1nc2ccccc2nc1Cc1ccccc1` (configuration not stated), for which the “activity change, positive = activation” value was inactive: -39.5%.

With `COC(=O)c1ccc(C2CC(=O)Nc3c2c(C)nn3-c2nc(C)cc(C)n2)cc1` (configuration not stated), the “activity change, positive = activation” value was inactive: -14.7%.

Regarding `CCOc1ccc(N2C(=O)c3[nH]nc(-c4ccccc4)c3C2c2ccc(O)c(OC)c2)cc1` (configuration not stated), the “activity change, positive = activation” value was inactive: -32.8%.

For `O=C(Nc1ccc(S(=O)(=O)Nc2ncccn2)cc1)c1cccc(Cl)c1`, the “activity change, positive = activation” value is inactive: 0.739%.

For `O=C(NCCN1CCOCC1)c1ccc(Cl)cc1`, the “activity change, positive = activation” value is inactive: 4.62%.

Regarding `COc1ccc(OC)c(NC(=O)Cn2nc3c(cc2=O)CCCC3)c1`, the “activity change, positive = activation” value was inactive: -21.9%.

As to `COc1ccc(CCNS(=O)(=O)c2ccc3c(c2)c(=O)n(C)c(=O)n3C)cc1OC`, the “activity change, positive = activation” value was inactive: 12.6%.

For `Cc1cc(Cl)ccc1OCCCC(=O)NO`, the “activity change, positive = activation” value is inactive: -34.4%.

Consider `Cc1ccc(NC(=O)c2nc(S(C)(=O)=O)ncc2N(Cc2cccc(F)c2)Cc2ccco2)cc1C`, for which the “activity change, positive = activation” value is inactive: -23.2%.

On to `NS(=O)(=O)c1ccc(NC(=O)c2cc(-c3cccs3)nc3ccccc23)cc1`, for which the “activity change, positive = activation” value was inactive: -39%.

With `Cc1ccc(NC(=O)CCCc2nnc3n(C)c(=O)c4sccc4n23)cc1C`, the “activity change, positive = activation” value is inactive: 2.72%.

Regarding `COc1ccc(NC(=O)C2=C(C)Nc3nc(SCc4ccc(C)cc4C)nn3C2c2cccc(OC)c2OC)cc1` (configuration not stated), the “activity change, positive = activation” value was inactive: -0.316%.

As for `Cc1[nH]c(=O)[nH]c(=O)c1S(=O)(=O)Nc1cccc(Cl)c1C`, the “activity change, positive = activation” value was inactive: -1.1%.

For `CNC(=O)c1ccc(Nc2cc(Nc3ccccc3S(=O)(=O)C(C)C)c3cc[nH]c3n2)nc1`, the “activity change, positive = activation” value is inactive: -37.3%.

As to `COc1cc(-c2ccno2)ccc1S(=O)(=O)N1CCN(c2cccc(Cl)c2)CC1`, the “activity change, positive = activation” value was inactive: -35.4%.

Take `CCOc1ccc(CNC(=O)Cn2nc(C)c3nn(-c4ccc(Cl)cc4)c(C)c3c2=O)cc1`: the “activity change, positive = activation” value is inactive: -2.64%.

For `Cc1oc2ncnc(N3CCCCC3)c2c1C(=O)NCC1CCN(Cc2ccccc2F)CC1`, the “activity change, positive = activation” value is inactive: -1.47%.

Regarding `Cc1ccc(CNC(=O)c2oc3ccc(S(=O)(=O)N4CCCC(C)C4)cc3c2C)cc1` (configuration not stated), the “activity change, positive = activation” value was inactive: -26.4%.

Consider `COc1ccccc1NC(=O)c1sc2nc(-c3cc4cc(Cl)ccc4oc3=O)[nH]c(=O)c2c1C`, for which the “activity change, positive = activation” value is inactive: 0.199%.

With `O=c1[nH]c(=O)n([C@H]2C[C@@H](O)[C@@H](CO)O2)cc1F`, the “activity change, positive = activation” value was inactive: -35.7%.

Take `CCCCCN1C(C(=O)c2ccccc2)=C(NC(=O)c2ccc(OC)c(OC)c2)c2ccccc2S1(=O)=O`: the “activity change, positive = activation” value was inactive: -15.9%.

Take `COc1ccc(C)cc1NC(=O)CSc1nc(=O)n(Cc2cccnc2)c2c1CCC2`: the “activity change, positive = activation” value was inactive: -25.9%.

For the compound `COC(=O)c1ccccc1NC(=O)CSc1cc(-c2ccccc2)nc(C)n1`, the “activity change, positive = activation” value is inactive: -22.8%.

Regarding `COc1ccc(NC(=O)N2CCC(CN3CCCC3)CC2)c(OC)c1`, the “activity change, positive = activation” value was inactive: -2.88%.

Regarding `O=C(CCn1c(=O)c2cccn2c2ccc(F)cc21)NCCc1ccc(Cl)cc1`, the “activity change, positive = activation” value is inactive: -14.8%.

With `O=C(C1CCCN(S(=O)(=O)c2cccc3nonc23)C1)N1CCN(c2ccccc2F)CC1` (configuration not stated), the “activity change, positive = activation” value is inactive: -22.4%.

Consider `Clc1ccc(-c2ccc(CNCCSc3nnnn3-c3ccccc3)o2)cc1`, for which the “activity change, positive = activation” value is inactive: 0.27%.

For `CCN1CCN(c2oc(-c3ccc(COc4ccc(OC)cc4)o3)nc2C#N)CC1`, the “activity change, positive = activation” value was inactive: -19.8%.

Take `CC(C)(C)OC(=O)N1CCC(c2c(C(=O)NCCN3CCOCC3)cnn2-c2cccc(F)c2)CC1`: the “activity change, positive = activation” value is inactive: -4.39%.

In the case of `CC(=O)c1ccc(N2C(=O)N(Cc3ccc(F)cc3)c3ccccc3S2(=O)=O)cc1`, the “activity change, positive = activation” value is inactive: -31.1%.

As for `COc1ccc(C2(CNC(=O)C(=O)Nc3ccc(C)c(Cl)c3)CCCC2)cc1OC`, the “activity change, positive = activation” value was inactive: 5.81%.

`COc1c(C)c2c(c(O)c1C/C=C(\C)CCC(=O)O)C(=O)OC2`: the “activity change, positive = activation” value is inactive: -31.5%.

On to `CCN(CC)S(=O)(=O)c1nnc(NC(=O)COc2ccccc2)s1`, for which the “activity change, positive = activation” value was inactive: -3.62%.

For the compound `Clc1cccc(-n2ncc3c(NCCC4=CCCCC4)ncnc32)c1`, the “activity change, positive = activation” value was inactive: 12.4%.

`COc1ccc(OC)c(C(=O)CN2C(=O)N(c3cc(C)cc(C)c3)S(=O)(=O)c3ccccc32)c1`: the “activity change, positive = activation” value is inactive: -22.6%.

Consider `Cc1ccc(S(=O)(=O)c2cn(C)c3cc(N4CCOCC4)c(F)cc3c2=O)c(C)c1`, for which the “activity change, positive = activation” value was inactive: -17.4%.

Consider `COc1ccc(N2CCN(c3ncnc4c3nc3n4CCCCC3)CC2)cc1`, for which the “activity change, positive = activation” value was inactive: -55.4%.
